Test results published in PubChem BioAssay AID1346428 (National Center for Advancing Translational Sciences (NCATS), 2018).
Values joined by “and” are separate entries in the source; they are usually repeats but may differ in a detail not shown here. Equal values may be shown once. In all, about 48,000 compounds went through this assay and about 1,200 (2.5%) were called active. About 2% were inconclusive and are not listed.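 Rule for the calls: active = activation of at least 60% and not above a set upper limit (about 1 call in 100 departs from these limits); inconclusive = activation of 40% to 60%, or above that upper limit; inactive = activation under 40%.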 The list shows a part of the results.

Target: Probable G-protein coupled receptor 32 (Homo sapiens) (UniProt O75388)
Assay: qHTS for Agonists of Human Resolvin D1 Receptor DRV1; note: 0% is about no effect
Details: CHO-K1 GPR32 beta-arrestin PathHunter luminescence, 90 min; at 76.9 µM; hits give high values; zero percent set by DMSO-only wells
Method in brief: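 PathHunter beta-arrestin recruitment in CHO-K1 cells stably expressing ProLink-tagged GPR32. Cells were exposed to compound for 90 min at 37 C, then chemiluminescence was read after 1 h detection at ambient temperature; DMSO served as basal control.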

UniProt O75388, sequence (O75388 whole entry, looked up): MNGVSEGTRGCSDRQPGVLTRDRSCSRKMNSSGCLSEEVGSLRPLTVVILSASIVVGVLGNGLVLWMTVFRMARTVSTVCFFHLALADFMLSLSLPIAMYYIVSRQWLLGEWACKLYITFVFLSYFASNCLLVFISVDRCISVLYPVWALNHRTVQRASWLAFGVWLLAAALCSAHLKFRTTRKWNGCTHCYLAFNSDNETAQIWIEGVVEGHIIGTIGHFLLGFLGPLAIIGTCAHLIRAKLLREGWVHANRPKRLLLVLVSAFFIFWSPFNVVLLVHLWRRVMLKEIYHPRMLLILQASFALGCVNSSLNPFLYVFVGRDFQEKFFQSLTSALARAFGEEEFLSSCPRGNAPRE

activation, inactive:
CC(C)CN(CCCNC(=O)CN1C(=O)CSc2ccc(S(=O)(=O)N3CCOCC3)cc21)CC(C)C -6.77%
CN1CCN(C2=Nc3ccccc3Oc3ccc(Cl)cc32)CC1 3.16% and -29.4%
CCOc1ccc(CNC(=O)CSc2nnc(C)c3c(C)n(-c4ccccc4)nc23)cc1 -10.1%
Cc1ccccc1CCNC(=O)c1ccc2c(c1)c(C)c(C)n2Cc1ccccc1 -25.8%
COc1ccc(OC)c2sc(N3CCN(C(=O)C4CC4)CC3)nc12 -11%
COc1ccc(OC)c(-n2cnc3cc(C(=O)NC4CCCCCC4)ccc32)c1 -14.4%
CCOc1ccc(NC(=O)CC2C(=O)OCCN2CC)cc1 (stereo not drawn) 17.5%
COc1ccccc1NC(=O)c1cnc(SCC(=O)N2CCCc3ccccc32)n(C)c1=O -16.5%
Cc1ccc(NC(=O)Cn2c(=O)n(CCC(=O)N3CCc4ccccc4C3)c(=O)c3ccccc32)cc1 3.52%
Cc1cc(C)cc(S(=O)(=O)Nc2cccc(-c3ccc(N4CCOCC4)nn3)c2)c1 -9.86%
CC(=O)c1ccc(NC(=O)Cn2c(=O)c3cccn3c3ccccc32)cc1 8.78%
COc1ccc(Cn2c(C(=O)O)c(CNCCc3cccs3)c3ccc(C)cc32)cc1 34%
COc1ccccc1CNC(=O)c1ccc2c(c1)N(Cc1cccc(Cl)c1)C(=O)c1ccccc1S2(=O)=O -17.1%
Cc1ccc(Cn2c(C(=O)O)c(CNC3CCCCCC3)c3ccc(C)cc32)cc1 -2.58%
CC(C)(C)C(=O)NCCc1nc2ccccc2n1CCCCOc1ccc(Cl)cc1 37.1%
Cc1oc2ncn(CC(C)C)c(=O)c2c1C(=O)Nc1cc(F)ccc1F -26.1%
O=C(NN1CCCC1)NS(=O)(=O)c1ccc(Cl)cc1 -64.3%
COc1ccc(-n2nc3c(N4CCCC(C(=O)NCc5cccc(F)c5)C4)nnc(C)c3c2C)cc1 (stereo not drawn) -5.25%
COc1cccc(CNC(=O)c2cc3c(s2)-c2c(C)cccc2OC3)c1 -14.5%
COc1ccc(-c2nc(CNS(=O)(=O)c3ccccc3)cs2)cc1 -4.63%
Cc1ccc(C)c(OCCn2cc(C(=O)c3ccco3)c3ccccc32)c1 -0.0705%
CCn1c(CNC(=O)C23CC4CC(CC(C4)C2)C3)nnc1SCC(=O)Nc1ccccc1 7.66%
COc1ccccc1C(=O)NC1(C(F)(F)F)C(=O)Nc2c1c(=O)[nH]c(=O)n2-c1ccccc1 (stereo not drawn) -4.13%
Cc1oc2ncn(C)c(=O)c2c1C(=O)N1CCN(c2ccccc2)CC1 -3.31%
O=C(Oc1ccc(F)cc1)c1nc(SCc2ccccc2F)ncc1Cl -13.8%
COc1c2occc2cc2ccc(=O)oc12 -1.07%
Cn1c(=O)c2c([nH]c(=O)n2Cc2ccc(Cl)cc2Cl)n(C)c1=O -10.5%
Cc1ccc2c(c1)-c1nc(-c3ccc4c(c3)NC(=O)CO4)cc(-c3ccc(Cl)cc3)c1CO2 -12.6%
CC1CCCN(CCCNC(=O)c2cn(C)c3ccc(S(=O)(=O)N(C)C4CCCCC4)cc3c2=O)C1 (stereo not drawn) -4.7%
Cc1ccc2nc(N3CCN(C(=O)C4CC4)CC3)sc2c1 -5.02%
COc1ccc(-c2noc(CCC(=O)NCc3ccc(C)cc3)n2)cc1 -13.6%
O=c1n(Cc2cccc(C(F)(F)F)c2)c2ccccc2c2nc(-c3ccccc3)nn12 -8.98%
Cc1ccc(-c2ccc(CCC(=O)O)n2-c2cccc(O)c2)cc1 0.316%
COc1ccc(-c2ccc(=O)n(CC(=O)Nc3ccc(C)cc3C)n2)cc1 -18.7%
Cc1ccc(C(=O)Nc2ccc3oc(-c4ccc(C(C)(C)C)cc4)nc3c2)cc1 -4.75%
CCOC(=O)c1cccc(NC(=O)Cn2ncc3c4ccccc4n(Cc4ccccc4)c3c2=O)c1 -19.6%
Cc1ccc(CNC(=O)CCCCCn2c(=O)c3sccc3n(CC(=O)N(C)c3ccccc3)c2=O)cc1 -2.8%
CSc1nn(Cc2ccc(Cl)cc2)c(N(C(C)=O)C(C)=O)c1S(=O)(=O)c1ccccc1 17%
CCc1ccc2oc(C(=O)Nc3cccc(C(F)(F)F)c3)cc(=O)c2c1 11.6%
Cc1ccc(NC(=O)c2cc(C)nc3c2c(C)nn3-c2cccc(Cl)c2C)c(C)c1 -0.319%
Cc1cccc(Cn2c(=O)n(CCc3ccccc3)c(=O)c3c(C)c(C)sc32)c1 -0.38%
C#CCOc1ccc(-c2nnc(Nc3cccc(C)c3)c3ccccc23)cc1 -7.47%
Cc1ccc(NS(=O)(=O)c2ccc3[nH]c(=O)ccc3c2)cc1N(C)C 8.79%
CCn1cc(C(=O)NCc2ccccc2OC)c(=O)c2cc(S(=O)(=O)N3CCCCC3)ccc21 -9.3%
COc1ccccc1CN1COc2ccc3c(oc(=O)c4ccccc43)c2C1 -61.2%
COc1ccc(/C=C/C(=O)Nc2sc3c(c2C(N)=O)CCCC3)cc1 -4.89%
COc1cccc2sc(=NC(=O)c3ccc(S(=O)(=O)N4CCCCC4)cc3)n(C)c12 15.2%
CCOC(=O)c1cnc(NCc2ccccc2OC)c2ccccc12 -30.4%
COc1ccc(S(=O)(=O)N2CCCCC2)cc1C(=O)Nc1cccc(C(F)(F)F)c1 -21.5%
COc1ccccc1Nc1cc(C(=O)NC2CCCC2)c2ccccc2n1 -8.15%
CCOC(=O)C1CCC(CN(Cc2ccc(Cl)cc2)S(=O)(=O)c2ccc(F)c(C(=O)Nc3cccc(F)c3)c2)CC1 (stereo not drawn) 11.1%
COc1ccc(N2CCN(C(=O)c3cc4ccc5cccnc5c4[nH]3)CC2)cc1 -21.9%
COc1ccc(-c2cc(C)nc3c(-c4ccc(OC)c(OC)c4)c(C)nn23)cc1 -23.8%
